About 7,500 (2.1%) of roughly 360,000 compounds were called active. The inconclusive results got no clear call from the source; some entries with a clear call stand among them for comparison. Calls follow the shape of the dose curve; as a rule, active = well fitted cell-killing curve with a large enough effect; inconclusive = small, poorly fitted or top-dose-only effect, or effect the other way, or another doubt; inactive = no such curve, though single readings can be large or run the other way. Potencies of inconclusive entries are left out as doubtful fits.
Experiment: qHTS for induction of synthetic lethality in tumor cells producing 2HG: qHTS for the HT-1080-IDH1KD cell line;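 as to activity, negative = toxicity: 0% = DMSO wells and -100% = cell-free medium wells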
Conditions: HT-1080 IDH1 knockdown viability, ATP luminescence, 48 h; activity, negative = toxicity: at 46.1 µM (top of the series) unless noted
Summary of the method: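 Viability of IDH1-knockdown HT-1080 fibrosarcoma cells was assessed by CellTiter-Glo after 48 h at 37 °C with titrated compound; concentration-effect curves were classified by fit quality and response size.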
Potency is read from the fitted curve at half-maximal effect; tags tell the direction and shape of the fitted curve.

| Structure (SMILES) | Potency | activity, negative = toxicity |
| --- | --- | --- |
| Cc1cccc(C)c1NC(=O)C(CCc1ccccc1)n1c(=O)c(-c2cc3ccccc3[nH]2)nc2ccccc21 (centres undefined) | inconclusive [cytotoxic, partial curve] | – |
| COC(=O)c1cc(NC(=O)Nc2cccc(Cl)c2)ccc1Cl | inconclusive [cytotoxic, single point] | – |
| Cc1ccc(-c2cn3cccnc3n2)cc1NC(=O)c1ccc(Br)o1 | – | inconclusive: 6.78% |
| Cc1ccc(S(=O)(=O)NCc2ccc(C(=O)NC3CCC(C)CC3)cc2)cc1 (centres undefined) | inconclusive [cytotoxic, partial curve] | – |
| O=C(CSc1ncnc2nc[nH]c12)c1ccccc1 | inconclusive [cytotoxic, single point] | – |
| O=C(Nc1ccc(Cl)cc1Cl)c1ccc(-c2ccccc2)cc1 | inactive | – |
| COc1ccc(-c2cnc(C(O)c3ccc(OC)c(F)c3)[nH]2)cc1 (centres undefined) | inactive | – |
| NS(=O)(=O)c1ccc(CCNc2ncnc3sccc23)cc1 | inconclusive [cytotoxic, single point] | – |
| CC(=O)Nc1sc(N/N=C/c2ccc(O)cc2)nc1-c1ccc(C)cc1 | inconclusive [cytotoxic, full curve, poor fit] | – |
| CC(Oc1ccc(F)cc1)c1ccnc2nc(/N=C/N(C)C)nn12 (centres undefined) | inactive | – |
| Cc1cc(C)cc(-n2ncc3c2CCCC3NC(=O)C2(C(N)=O)CC2)c1 (centres undefined) | inconclusive [cytotoxic, single point] | – |
| O=C(Nc1nnc(-c2cccs2)o1)c1cccc(F)c1 | inconclusive [cytotoxic, single point] | – |
| COc1ccccc1NC(=O)CN1CCN(CC(=O)Nc2ccc(OCc3ccccc3)cc2)CC1 | inconclusive [cytotoxic, partial curve, poor fit] | – |
| COc1cccc(NC(=O)COc2ncnc3sc(C)c(C)c23)c1 | inactive | – |
| Cn1nc(C(F)(F)F)c(C(=O)Nc2cccc(C(F)(F)F)c2)c1SCc1ccc(Cl)cc1 | inconclusive [cytotoxic, single point] | – |
| CN(CC(=O)O)S(=O)(=O)c1ccc2c(c1)n(C)c(=O)c(=O)n2C | inactive | – |
| COc1ccc(N(Cc2ccccc2)C(=O)c2ccccc2[N+](=O)[O-])cc1 | inactive | – |
| N#Cc1c(NC(=O)C2CC(c3c(F)cccc3Cl)=NO2)sc2c1CCC2 (centres undefined) | inactive | – |
| CCOc1ccc(-c2c(C(=O)N/N=C/c3ccc(O)cc3)nnn2-c2nonc2N)cc1 | inconclusive [cytotoxic, single point] | – |
| CC(C)c1csc(CN2CCC(CO)(Cc3cccc(F)c3)CC2)n1 | inactive | – |
| CCc1cc(-c2cnnn2Cc2ccccc2)ccc1-c1cn(CC(C)C)nn1 | inconclusive [cytotoxic, single point] | – |
| CC(=O)/C(C#N)=C1\NC(=O)C(Cc2ccccc2Cl)S1 (centres undefined) | active: 3.66 µM | – |
| O=C1OC(c2ccccc2)(c2ccc3cc(O)ccc3c2)c2ccccc21 (centres undefined) | active: 25.9 µM | – |
| CCN(CC)c1ccc2cc(-c3nc4ccccc4n3C)c(=O)oc2c1 | inconclusive [cytotoxic, full curve] | – |
| Cc1c(C(=O)N2CCc3ccccc32)oc2ccccc12 | inactive | – |

| Structure (SMILES) | Potency | activity, negative = toxicity |
| --- | --- | --- |
| Cc1ccn2cc(C(=O)NC3CCN(Cc4ccccc4)CC3)nc2c1 | inconclusive [cytotoxic, single point] | – |
| Cc1nc2c(o1)C(=O)c1ccccc1C2=Nc1ccccc1 | active: 2.91 µM | – |
| CC(=O)Nc1cccc(-c2ccnc3c2CC(C(=O)NCc2cccs2)O3)c1 (centres undefined) | active: 0.651 µM | – |
| ON=C1c2cc(OCCN3CCCCC3)ccc2-c2ccc(OCCN3CCCCC3)cc21 | active: 23.1 µM | – |
| Clc1ccc2oc(-c3cccnc3NCc3ccccc3)nc2c1 | inactive | – |
| COc1cc(C(=O)NC(C)Cc2ccccn2)ccc1OC1CCN(C(C)=O)CC1 (centres undefined) | inactive | – |
| CCOc1ccccc1N1CCN(c2nc3ccccc3nc2C(C#N)C(=O)OC)CC1 (centres undefined) | inactive | – |
| O=C(NCCc1ccccc1)C1CCN(C(=O)c2sccc2-n2cccc2)CC1 | inactive | – |
| O=C(Cn1c(-c2ccccc2)c[n+]2ccsc12)c1ccc(Br)cc1 | inconclusive [cytotoxic, single point] | – |
| COc1cc(NC(=O)c2ccc(Cl)cc2Cl)ccc1-c1cc2ccccc2oc1=O | inconclusive [cytotoxic, single point] | – |
| CC(=O)N1CCOc2ccc(S(=O)(=O)NCC3CCC(C(=O)Nc4ccc(C)cn4)CC3)cc21 (centres undefined) | inactive | – |
| CCCc1nc(SC)[nH]c(=O)c1C | inactive | – |
| CC1(C(=O)NS(=O)(=O)C2CC2)CCCN(C(=O)c2cc3ccccc3s2)C1 (centres undefined) | inactive | – |
| CC(C)Nc1nnc(SCC(=O)Nc2ccc3c(c2)C(=O)c2ccccc2C3=O)s1 | inconclusive [cytotoxic, single point] | – |
| COc1cccc(C2CC(c3ccc(Br)cc3)=NN2C(=O)c2ccncc2)c1OC (centres undefined) | active: 18.4 µM | – |
| O=c1c2ccccc2ncn1C1CCCCC1 | inactive | – |
| COCCCNC(=O)c1ccc2c(=O)n(Cc3ccc4c(c3)OCO4)c(=S)[nH]c2c1 | inconclusive [cytotoxic, single point] | – |
| O=C(O)CCNS(=O)(=O)c1ccccc1C(F)(F)F | – | inconclusive: 30.9% |
| CCNC(=S)NNC(=O)c1cc(C2CC2)nc2ccccc12 | inconclusive [cytotoxic, partial curve] | – |
| O=C1CCCN1CC(=O)N1CCCC(Nc2cccc(F)c2)C1 (centres undefined) | inactive | – |
| COc1ccc(C(=O)Nc2cc(OC)c(NC(=O)Nc3ccccc3)cc2OC)cc1 | inconclusive [cytotoxic, single point] | – |
| CC1(C)Oc2nc3ccccc3n2/C1=C\C#N | inactive | – |
| Cc1ccc2c(c1)CCCN2C(=O)c1ccoc1C | inconclusive [cytotoxic, single point] | – |
| CSc1nnc(CSCc2ccc(Cl)cc2Cl)n1-c1ccccc1 | inconclusive [cytotoxic, single point] | – |
| COc1ccc(CCN2C(=S)N(C)C(=O)C2CC(=O)Nc2ccc(F)cc2)cc1 (centres undefined) | inconclusive [cytotoxic, single point] | – |

| Structure (SMILES) | Potency | activity, negative = toxicity |
| --- | --- | --- |
| c1ccc(CNc2nc(NCCc3ccncc3)c3sccc3n2)cc1 | inconclusive [cytotoxic, single point] | – |
| Cc1cccc(C(=O)NCCNc2nc3cc(C)c(C)cc3cc2C)c1 | inconclusive [cytotoxic, single point] | – |
| COc1ccc(C(=O)N(Cc2nc(-c3ccc(C)cc3)no2)C2CCCCC2)cc1OC | inconclusive [cytotoxic, single point] | – |
| Fc1ccc(CN2CCN(c3ncnc4scc(-c5ccccc5)c34)CC2)cc1 | inactive | – |
| CCOc1cc(C#N)c(NC(=O)c2ccco2)cc1OCC | inconclusive [cytotoxic, partial curve] | – |
| CCC/C=N/Nc1nc2ccccc2s1 | inconclusive [cytotoxic, single point] | – |
| O=C1C[C@@H](c2ccc(O[C@@H]3O[C@H](CO)[C@@H](O)[C@H](O)[C@H]3O)cc2)Oc2cc(O)ccc21 | inactive | – |
| CCCCC1CCC(C(=O)Nc2ccc(S(=O)(=O)Nc3nccs3)cc2)CC1 (centres undefined) | inconclusive [cytotoxic, single point] | – |
| COCCCNC(=O)CSc1nc2ccccc2c(=O)n1CCCN1CCCCC1 | inactive | – |
| N#CC1=C(SCC(=O)c2ccc(Br)cc2)NC2=C(C(=O)CCC2)C1c1ccco1 (centres undefined) | active: 10.3 µM | – |
| NS(=O)(=O)c1ccc(CNC(=O)CNC(=O)c2ccc(F)cc2)cc1 | inactive | – |
| C=CCc1cc(/C=N/NC(=O)CSc2nnc(CCCc3ccc(OC)cc3)o2)cc(OC)c1O | inactive | – |
| Cc1ccc(OCc2nc3ccccc3n2C(C)C(=O)Nc2c(C)cccc2C)cc1 (centres undefined) | inconclusive [cytotoxic, single point] | – |
| O=C1OCCN1C(=O)[C@H]1[C@H](c2ccc(F)cc2)C(c2cccc(Cl)c2)=NN1c1ccc(Br)cc1 | inconclusive [cytotoxic, single point] | – |
| Cc1cccc(N2CCN(C(=O)CCCSc3nc4ccccc4[nH]3)CC2)c1C | inconclusive [cytotoxic, single point] | – |
| O=C(Nc1ccc(Cl)cc1)OCCn1nnnc1C(c1ccccc1Cl)N1CCOCC1 (centres undefined) | – | inconclusive: -33% [cytotoxic] |
| CCCOc1c(Cl)cc(C(=O)Nc2ccc3c(c2)OCO3)cc1OCC | active: 10 µM | – |
| CCOCCCNC(=S)N1CCN(c2nc(-c3ccc(F)cc3)cs2)CC1 | inconclusive [cytotoxic, single point] | – |
| O=C(Nc1ccc(C(=O)OC2CCCCC2)cc1)c1ccncc1 | inconclusive [cytotoxic, partial curve] | – |
| COc1cccc(C2=NN(C(=O)c3cccs3)C(O)(C(F)(F)F)C2)c1 (centres undefined) | inconclusive [cytotoxic, single point] | – |
| C=C(C)CSc1nc2sc3c(c2c(=O)n1C1CCCCC1)CCN(C)C3 | inconclusive [cytotoxic, single point] | – |
| CCCc1cc(-n2ccnc2)n2c(nc3ccccc32)c1C#N | inconclusive [cytotoxic, single point] | – |
| O=C(CN1CCN(Cc2ccccc2)CC1)N1CCCc2c1c(=O)oc1ccc(O)cc21 | inconclusive [cytotoxic, single point] | – |
| NC1=CC(=O)C(=O)c2cccnc21 | active: 11.6 µM | – |

From PubChem BioAssay AID686971 (National Center for Advancing Translational Sciences (NCATS), 2013)
